{
  "source": "PubChem BioAssay AID1794734",
  "about": "(DTP/NCI, 2022)",
  "system": "HOP-18 NSCLC",
  "assay": "NCI-60 one-dose screen, 48 h (100 = growth as untreated, 0 = no growth, -100 = all killed)",
  "details": "2.5 mM",
  "protocol": "Growth inhibition of the HOP-18 human Non-Small Cell Lung tumor cell line is measured as a screen for anti-cancer activity. Cells are grown in 96 well plates and exposed to the test compound for 48 hours. Compounds are tested at a single concentration, which is 10^-5 M for most compounds. The reported endpoint is percent growth (GI% or GIPRCNT), where numbers from 0 - 100% represent growth inhibition, and numbers from -100% - 0 represent cell death. For example, a value of 40 represents 60% growth inhibition. A value of 0 means no net growth occurred over the course of the experiment. A value of -40 indicates 40% of cells at the beginning of the experiment died by the end of the experiment. A value of -100 means all cells are dead at the end of the experiment.\nNCI-60 Human Tumor Cell Lines Screen was performed using the standard one-dose NCI protocol, which is described in more detail at https://dtp.cancer.gov/discovery_development/nci-60/default.htm.\nCompounds with GIPRCNT values below 10 were considered active. Activity score was based on GIPRCNT using the following formula: […]\nScore is 0 for GIPRCNT values of 100 or above, 50 for GIPRCNT values of 0, and 100 for GIPRCNT values of -100.",
  "note": "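Treatment: one concentration, 48 hours, 96-well format. Scoring: percent growth, with anything below 10 considered active.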 Certain results were filed several times, with different values. This list holds those alone. The source may hold further records. This drug was run again and again over the years, at its own concentration, as given; one value stands for one run. Marks such as (2×) give the number of equal values in this list.",
  "data": [
    {"smiles": "O=c1[nH]cc(F)c(=O)[nH]1", "values": [
      {"measurement": "growth", "setting": "runs of 1991", "result": "31.8, 72.5, 28.6, 26.3, 68.9, 43.7, 38, 37.7, 88.4, 51.4, 35.8, -0.163%"},
      {"measurement": "growth", "setting": "runs of 1992", "result": "90.1, 109, 12.3, 43.5, 21.9, 44.6, 106, 63.2, 34.6 (2×), 50.4, 34.5, 56.3, 70, 91, 40.2, 53.9, 51.8, 58.6, 66.8, 32.1, -7.38, 49.1 (2×), 131, 79.7, 105, 78.1, 135, 113, 74.7, -2.45, 99.5, 44.5, 78.9, 88.2, 126, 18, 29.8, 24.1, 34.9, 17.9, 104, 80.6, 21, 28.4, 29.9, 19.9, 39.1, 32.7, 90.8, 31.4, 36.7, 1.79, 22.7, 22.5, 31.8, 71.1, 23.2, 28.8, 9.23, 35.6, 33.4, -13.4, 49.9, 23, 69.1, 29.3, 22.1, 47.4, 101, 60.6, 60.2%"}
    ]}
  ]
}
